# Measurements published in PubChem BioAssay AID1963576 (National Center for Advancing Translational Sciences (NCATS), 2024).
# The whole screen tested about 46,000 compounds, of which about 60 (0.1%) were called active. Roughly 3% stayed inconclusive and do not appear here. The call rests on the fitted dose curve; in most records, active means well fitted inhibition curve with a large enough effect; inconclusive means small, poorly fitted or top-dose-only effect; inactive means no such curve, though single readings can be large or run the other way. This is one part of the list.
# Test: Primary qHTS assay for Inhibitors of ovarian cancer metastasis using an organotypic tumor microenvironment (TME) model. Further: nearly all actives have a fitted effect of over 65% in size.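 On Potency: count of GFP cancer cells still attached after washing and fixation.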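 On activity change, negative = inhibition: plate controls were DMSO wells for no effect and tomatine positive control wells for full effect.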
# Settings: SKOV3ip1-GFP adhesion/invasion on 3D omental model, fluorescence; series mostly up to 45.8 µM; activity change, negative = inhibition: at the top concentration
# How it was run: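 Primary human omental fibroblast/mesothelial 3D culture pre-formed 48 h. SKOV3ip1-GFP cells added with compounds (0.36-46 umol/L), incubated 2 h RT/16 h 37 C, fixed; GFP cells quantified at 488/509 nm.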
# Potency means the concentration at half of the fitted maximal effect.
Structure (SMILES),"activity change, negative = inhibition",outcome,Potency
Cn1c(CNC(=O)CSc2nc(-c3cccc(Cl)c3)nc3cc(=O)[nH]n23)nc2ccccc21,inactive: 1.12%,,
Cc1ccc(S(=O)(=O)n2nc(-c3ccco3)nc2NCc2ccccc2Cl)cc1,inactive: 0.395%,,
CCn1c(=O)cc(OCC(=O)N2CCN(c3ccccc3OC)CC2)c2ccccc21,inactive: 1.23%,,
Cc1ccc(CN2CCN(C3CCN(C(=O)Nc4ccccc4C(F)(F)F)CC3)C(=O)C2=O)cc1,inactive: 0.175%,,
Cc1cc(C)c2oc(C(=O)Nc3ccc(S(=O)(=O)N4CCC(C)CC4)cc3)cc(=O)c2c1,inactive: -7.6%,,
Cc1cc(C)n2c(Nc3ccccc3)c(-c3ccccc3)nc2n1,inactive: -1.82%,,
Cc1cccc(Cn2cnc3c(cnn3-c3ccc(Cl)cc3)c2=O)c1,inactive: 0.177%,,
CC(C)NC(=O)C1CCCN(c2ncnc3c2nc2n3CCCCC2)C1 (stereo not given),inactive: 13%,,
COc1ccc(Cl)cc1NC(=O)Cn1cnc2c1c(=O)n(C)c(=O)n2C,inactive: -1.71%,,
CC(NC(=O)c1ccc2c(c1)N(Cc1ccc(Cl)cc1)C(=O)c1ccccc1S2=O)c1ccccc1 (stereo not given),inactive: -13.4%,,
Cc1ccc(CNC(=O)CCCn2c(=O)c3ccccc3n(Cc3ccccc3C)c2=O)cc1,,inactive,
Cc1cccc(C)c1NC(=O)CCCN1C(=O)CCn2nc(-c3cn(C)c4ccccc34)cc21,inactive: -2.28%,,
Cc1cccc(Cn2nnc(C(=O)Nc3cc(C)ccc3C)c2N)c1,,inactive,
COc1cccc(NC(=O)C2CCN(c3nc4ccccc4nc3C(F)(F)F)CC2)c1,inactive: 44.3%,,
O=C(NC1CC(=O)N(c2cccc(F)c2)C1)C(c1ccccc1)c1ccccc1 (stereo not given),inactive: 3.94%,,
CCc1cc2c(-c3ccccc3)cc(=O)oc2c2c1OCN(Cc1ccc(F)cc1)C2,inactive: 1.06%,,
COc1cc(OC)c(NC(=O)Nc2c(C)n(C)n(-c3ccccc3)c2=O)cc1Cl,inactive: 0.265%,,
Cc1cc(C)c2sc(NC(=O)c3ccc(S(=O)(=O)N4CCOCC4)cc3)nc2c1,,inactive,
Cn1c(=O)n(C)c2cc(N3CCOCC3)c(NC(=O)c3c(F)cccc3F)cc21,inactive: 3.4%,,
COc1ccc(C(=O)NCC(c2ccc(N(C)C)cc2)N2CCc3ccccc32)cc1 (stereo not given),inactive: 5.06%,,
CCCN1CCN(c2cc3c(cc2F)c(=O)c(S(=O)(=O)c2ccc(Cl)cc2)cn3C)CC1,inactive: -9.54%,,
COC(=O)c1ccccc1NC(=O)c1ccc2c(=O)n3c(nc2c1)CCCCC3,inactive: -12.9%,,
CCOc1ccc(CNC(=O)C2Cc3ccccc3N2C(=O)CC)cc1 (stereo not given),inactive: 6.91%,,

Structure (SMILES),"activity change, negative = inhibition",outcome,Potency
CCC(Oc1ccccc1)C(=O)Nc1ccc(OCc2cc(=O)n3ccccc3n2)cc1 (stereo not given),inactive: 11%,,
Cc1cn([C@@H]2C[C@@H](O)[C@H](CO)O2)c(=O)[nH]c1=O,inactive: -5.46%,,
O=S(=O)(c1ccc(Cl)cc1)c1nc(-c2ccccc2)oc1N1CCN(c2ccccc2)CC1,,inactive,
O=C(Nc1ccc(Br)cc1)c1cccc(C(=O)Nc2ccc(Br)cc2)c1,,inactive,
COc1ccc(Nc2c3c(nc4ccc(NC(=O)/C=C/c5cccc(OC)c5OC)cc24)CCCC3)cc1OC,,,active: 5.01 µM
CCOC(=O)c1cc(NC(=O)c2ccc(Cl)cc2)c(=O)n2c1oc1ccccc12,inactive: -29.9%,,
O=C(CN1C=NS(=O)(=O)c2ccc(C(F)(F)F)cc21)Nc1cccc(C(F)(F)F)c1,,inactive,
CO[C@H]1C=CO[C@@]2(C)Oc3c(C)c(O)c4c(O)c(c5c(c4c3C2=O)NC2(CCN(CC(C)C)CC2)N=5)=NC(=O)C(C)=CC=C[C@H](C)[C@H](O)[C@@H](C)[C@@H](O)[C@@H](C)[C@H](OC(C)=O)[C@H]1C,inactive: 7.93%,,
Cc1ccc(CN(Cc2cccn2-c2nnc(N3CCCC3=O)s2)C(=O)Nc2ccccc2C(F)(F)F)cc1,inactive: -2.57%,,
Cc1ccc(CNC(=O)Cn2c(=O)n(Cc3ccccc3)c(=O)c3sc4ccccc4c32)cc1,inactive: 32.3%,,
CCc1nc(SCc2cc(=O)c3cc(C)ccc3[nH]2)n[nH]1,inactive: 2.26%,,
CCc1cccc(NC(=O)CSc2nc3ccsc3c(=O)n2CC)c1,inactive: -14.1%,,
CCn1c(/C(C#N)=C/c2ccccc2Cl)nc2ccccc21,inactive: -21.8%,,
COc1ccccc1N1CCN(C(=O)CN2C(=O)COc3ccc(S(=O)(=O)N4CCCC4)cc32)CC1,inactive: 21.7%,,
CCOc1ccc(C2CC(=O)c3c([nH]c(C(=O)OC4CCC(C)CC4)c3C)C2)cc1 (stereo not given),inactive: 24.7%,,
COCCn1c(SCC(=O)c2ccc(C)cc2C)nc2cc(C(=O)NC3CCCC3)ccc2c1=O,,inactive,
Cn1nnc2c(N3CCN(c4ccccc4)CC3)ncnc21,inactive: 8.31%,,
Cc1cc2ccccc2n1CCNC(=O)c1cc(C(F)(F)F)cc(C(F)(F)F)c1,inactive: 2.12%,,
Cc1ccccc1OC(=O)CSc1nnc(-c2ccc3c(c2)OCO3)o1,inactive: 24.9%,,
Cc1ccc(Cl)cc1N1CCN(C(=O)C2CCN(S(=O)(=O)c3cccc4nonc34)CC2)CC1,,inactive,
CN1CCN(C(=O)Cn2c(-c3cccs3)cc3cc(Cl)ccc32)CC1,inactive: -9.43%,,
Cc1ccc(C(=O)Nc2ccc(S(=O)(=O)O)c3cc(S(=O)(=O)O)cc(S(=O)(=O)O)c23)cc1NC(=O)c1cccc(NC(=O)Nc2cccc(C(=O)Nc3cc(C(=O)Nc4ccc(S(=O)(=O)O)c5cc(S(=O)(=O)O)cc(S(=O)(=O)O)c45)ccc3C)c2)c1,inactive: -8.86%,,
COC(=O)c1cc(NC(=O)c2nn(C)c3c2CSc2ccccc2-3)cc(C(=O)OC)c1,inactive: -3.88%,,

Structure (SMILES),"activity change, negative = inhibition",outcome,Potency
COc1ccccc1CNc1nc2ccc(Cl)cc2n2cnnc12,,inactive,
CC(C)c1ccc(NC(=O)c2cc(S(=O)(=O)N3CCCCC3)cn2C)cc1,,inactive,
CC(=O)c1c(C)oc2c(Br)cc(NS(=O)(=O)c3ccc(Br)cc3)cc12,,inactive,
CC(C)COc1ccc(C2=NC(c3ccncc3)=Nc3ccc(F)cc3N2)cc1,inactive: -16%,,
CCOc1ccc(N(CC)S(=O)(=O)N2CCCC(C(=O)Nc3cc(Cl)ccc3C)C2)cc1 (stereo not given),inactive: -3.5%,,
Cc1ccc(-c2n[nH]c3c2C(c2cccc(O)c2)N(c2ccc(C(=O)O)cc2)C3=O)cc1 (stereo not given),,inactive,
CCOc1ccc(-c2cc3c(=O)n(Cc4nc(-c5ccc(OC(C)C)cc5)oc4C)ccn3n2)cc1Cl,,inactive,
CC(C)(C)c1ccc(C(=O)N2CCC(c3nc(-c4ccc(S(=O)(=O)N5CCCC5)cc4)no3)CC2)cc1,inactive: -2.72%,,
CCN(CC)CCNC(=O)c1ccc(CSc2nc3ccncc3n2Cc2cccc(F)c2)cc1,inactive: -6.25%,,
CCCN(CCC)S(=O)(=O)c1ccc2c(c1)N(CC(=O)NCc1ccc(F)cc1Cl)C(=O)CS2,inactive: -22.9%,,
O=C(CCCn1c(=O)c2ccccc2n(CC(=O)Nc2cccc(C(F)(F)F)c2)c1=O)NCc1ccc2c(c1)OCO2,inactive: -22.3%,,
Cc1ccccc1-c1nc(CN2CCC(C(=O)NCCc3ccccc3)CC2)c(C)o1,inactive: -27.5%,,
COc1cc(C2SC[C@H]3C(=O)N(c4ccccc4)C(=O)N23)cc(OC)c1OC (stereo not given in full),,inactive,
COc1ccc(CNC(=O)C2CCCN(C(=O)N3CCOc4ccccc43)C2)cc1 (stereo not given),inactive: 6.28%,,
O=C(Cn1nc(N2CCN(c3ccccc3)CC2)ccc1=O)Nc1ccc(F)cc1F,inactive: -9.36%,,
Cc1ccc(S(=O)(=O)c2nnn3c2nc(NC(C)c2ccccc2)c2sccc23)cc1 (stereo not given),inactive: 0.987%,,
CCCc1cc(=O)[nH]c2nnc(SCC(=O)Nc3ccc(OC)cc3)n12,,inactive,
O=C(COCc1cc(-c2ccc(F)cc2)on1)Nc1cccc(Cl)c1Cl,inactive: -2.18%,,
O=C(Nc1ccccc1C(=O)OCc1cc(=O)n2ccsc2n1)c1ccc(Cl)cc1,inactive: -6.5%,,
O=C(NCc1cccn1Cc1ccccc1)Nc1ccc(Br)cc1F,inactive: -0.887%,,
COc1cccc(N2CCN(c3ncnc4c3c(-c3ccccc3)cn4-c3ccc(C)cc3)CC2)c1,,inactive,
CCOC(=O)c1c(C)[nH]c(C)c1S(=O)(=O)NCC(=O)NCc1ccc(C)cc1,inactive: 4.1%,,
CCN(CC)S(=O)(=O)c1ccc2c(c1)nc(CN(C)C(=O)Nc1ccc(Cl)cc1)n2C,,inactive,

Structure (SMILES),"activity change, negative = inhibition",outcome,Potency
COc1ccccc1CNC(=O)CCNS(=O)(=O)c1ccc2c(c1)CCCC(=O)N2,,inactive,
Cc1ccc(Cl)cc1NC(=O)Nc1nnc(N2CCCC(C)C2)s1 (stereo not given),inactive: 5.58%,,
CCOc1ccc(N2CC(NC(=O)c3ccc(S(=O)(=O)N4CCCC4)cc3)CC2=O)cc1 (stereo not given),inactive: 7.71%,,
CCOC(=O)c1c(C)c(-c2ccccc2)n(CC(=O)NCc2cccc(OC)c2)c1C,,inactive,
O=C(NCc1cccn1Cc1ccccc1)Nc1cccc(C(F)(F)F)c1,inactive: 0.887%,,
Cc1ccc([N+](=O)[O-])cc1S(=O)(=O)N1CCn2cccc2C1c1ccccc1F (stereo not given),inactive: -2.09%,,
Cn1c(=O)oc2cc(S(=O)(=O)N3CCC(C(=O)NCc4ccccc4)CC3)ccc21,inactive: -18.2%,,
Cc1ccc(-n2nc3c(=O)n(CCCC(=O)NCc4ccccc4C)nc(C)c3c2C)cc1,inactive: 7.42%,,
COCCNC(=O)c1c(-c2ccccc2)c(-c2ccccc2)nn(C)c1=O,inactive: -14.1%,,
Cc1ccc(NC(=O)CNC(=O)Cn2c(C)cc3ccccc3c2=O)cc1F,inactive: 9.8%,,
CN(Cc1ccc(F)cc1)S(=O)(=O)c1nnc(NC(=O)c2ccccc2Br)s1,inactive: -4.83%,,
O=C(Cn1c(=O)n(Cc2ccc(Cl)cc2)c(=O)c2cccnc21)Nc1ccccc1C(F)(F)F,inactive: -16.6%,,
CCOc1cc(CNC(=O)c2ccc(Cn3c(=O)c4cccn4c4cccnc43)cc2)ccc1OC,inactive: 5.68%,,
CCOC(=O)c1cnc2cc(C(F)(F)F)ccc2c1N1CCN(c2cccc(Cl)c2)CC1,,inactive,
Cc1ccc(NC(=O)CSc2nc3ccc(NC(=O)c4cccs4)cc3s2)cc1,inactive: -10.4%,,
CCC(Sc1nnc(C)n2c1cc1sccc12)C(=O)Nc1ccccc1F (stereo not given),inactive: -7.7%,,
CCOC(=O)c1c(SCC(=O)Nc2nc3ccccc3s2)nc(=O)[nH]c1C,inactive: 5.5%,,
CCCCC(=O)Oc1ccc2oc(-c3ccc(OC)cc3)cc(=O)c2c1,inactive: -1.07%,,
Cc1ccc(F)cc1NC(=O)CCc1c(C)nn(-c2ccc(N3CCCC3)nn2)c1C,inactive: 20.1%,,
CCc1cc(C(N)=S)ccn1,inactive: 4.63%,,
CC(=O)c1ccc(NC(=O)Cn2cnc3nc4c(cc3c2=O)CC(C)CC4)cc1 (stereo not given),inactive: 4.83%,,
